This is one part of the list.

These results are taken from article PMC7819943, “Rice protein-binding microarrays: a tool to detect cis-acting elements near promoter regions in rice”.

This assay concerns the target T1, OsWOX13 (Oryza sativa, UniProt Q5QMM3 1-267).
T1 sequence: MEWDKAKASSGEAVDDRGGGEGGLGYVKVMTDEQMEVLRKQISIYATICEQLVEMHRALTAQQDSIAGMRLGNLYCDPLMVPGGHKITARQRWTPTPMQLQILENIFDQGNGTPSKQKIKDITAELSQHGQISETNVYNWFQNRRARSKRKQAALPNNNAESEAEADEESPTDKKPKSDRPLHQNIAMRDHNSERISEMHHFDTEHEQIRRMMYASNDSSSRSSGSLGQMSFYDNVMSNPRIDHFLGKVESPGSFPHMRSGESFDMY
Put plainly: protein-binding microarray (RPBM); PBS, 2% BSA, 51.3 ng/ul salmon testes DNA, 50 uM zinc acetate, 200 nM TF, 25 C, 1 h; high values mean tight binding. The settings on record: protein: recombinant; tags: N-terminal polyhistidine and DsRed monomer fusion (pET32a); label: CyDye5-dUTP incorporated in the synthesized complementary strand; 3' TTTTT single-stranded linker to array surface; dsDNA, one strand shown. Put shortly:
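Polyhistidine-tagged DsRed fusions of transcription factors, joined at the N-terminus, were expressed in E. coli BL21-CodonPlus and isolated on Ni–NTA. They were incubated at 200 nM for 1 h at 25 °C on a custom Agilent array, double-stranded and BSA-blocked, in PBS with 2% BSA, salmon testes DNA and 50 µM zinc acetate. The binding signal is per-feature fluorescence intensity (arbitrary units) read on an Axon 4000B scanner after washing.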
Take “AAGTGTTAATTACCTAGAGATCTTGTTGCTAGAGAAGAGGCGGAGTCACCTAGTGCAG”: the binding signal was 16300 fluorescence intensity (a.u.).
With “TTAATTGGCATGCATAATATGAGGGCACATGCACTCGAGTCGGAGTCACCTAGTGCAG”, the binding signal was 18000 fluorescence intensity (a.u.).
The result for “ATTGCTGATTGAGCATGTAGACATTGCTAGTGGTAGTACGCGGAGTCACCTAGTGCAG” reads 58000 fluorescence intensity (a.u.); that for “AATTAATTAAACCACCCCAAAGACAACTCTTCTTCAGGAACGGAGTCACCTAGTGCAG”, 18500 fluorescence intensity (a.u.).
The result for “GTATGAATTGGTTATTACATTTGCTATAGATAATTTGGAGCGGAGTCACCTAGTGCAG” reads 3970 fluorescence intensity (a.u.); that for “TCTAGATTACCCTTCTATTAGTGAGACATTGTTATAGTGCCGGAGTCACCTAGTGCAG”, 10100 fluorescence intensity (a.u.).
The result for “CTGGGATTAAAATTAGACATGTTTAACTTAGGCGAAGCTACGGAGTCACCTAGTGCAG” reads 28600 fluorescence intensity (a.u.).
Consider “AATTCCACTCACTCATCACTTAATTTGCTAGCTAGTAGCTCGGAGTCACCTAGTGCAG”, for which the binding signal was 6770 fluorescence intensity (a.u.).
The result for “GGACTGATTTGCCTTTGCCCTTGCCGGCGCAGTCCAACCACGGAGTCACCTAGTGCAG” reads 13200 fluorescence intensity (a.u.); that for “GAAAATAGATAACTTCAGTCTTCAGATGACAAGTAGTACACGGAGTCACCTAGTGCAG”, 5170 fluorescence intensity (a.u.); that for “AATGATTTATATCGTGAAACAGATGAAGTACTATATAGAACGGAGTCACCTAGTGCAG”, 12600 fluorescence intensity (a.u.).
Under “TGTAACAAACAGGCTGTAACGGCACCGTAATAAACCCAACCGGAGTCACCTAGTGCAG” stands 6570 fluorescence intensity (a.u.); under “TTGATTTAGTCCATTTAATGAATGGTGCGTCACACTAAAACGGAGTCACCTAGTGCAG”, 7190 fluorescence intensity (a.u.).
Under “GCGGTTGACTTAATAGAGGGGCTATTCATATTGATGTTAACGGAGTCACCTAGTGCAG” stands 4480 fluorescence intensity (a.u.).
With “ATAATTAATAATTAAAATTCATGTATTCGCTCTATATCTTCGGAGTCACCTAGTGCAG”, the binding signal is 19200 fluorescence intensity (a.u.).
For “TACTGTCGGTTAATTGCCAACTTGTGCTCTCTCCTCATTTCGGAGTCACCTAGTGCAG”, the binding signal was 3230 fluorescence intensity (a.u.).
With “TTCAATTAAGGGGCAATTACAAATTTACCAATGTTTTGAACGGAGTCACCTAGTGCAG”, the binding signal is 21800 fluorescence intensity (a.u.).
The result for “CTTGATTATTTTAGGCTAATTCTGAATTGCGTGGGAGCTCCGGAGTCACCTAGTGCAG” reads 33800 fluorescence intensity (a.u.).
The result for “TTAGACAATTATACTATAAGTTTACTTTACTGCCATTGGGCGGAGTCACCTAGTGCAG” reads 3780 fluorescence intensity (a.u.); that for “TTGATTGAAAACCCACGCATCCTCCTCCTTCCCATTGCGCCGGAGTCACCTAGTGCAG”, 50500 fluorescence intensity (a.u.).
The result for “GGTATAGTTATTGGTTTGATTTATAATATAAAGGTATTTGCGGAGTCACCTAGTGCAG” reads 11200 fluorescence intensity (a.u.).
For “CATTTGCGTGCCTGATTAATCCTCTCGTCATCTCACCTCACGGAGTCACCTAGTGCAG”, the binding signal was 3650 fluorescence intensity (a.u.).
The result for “TTTGACATACATTTATATGTGGGTTCCTCTAGATCTCTGTCGGAGTCACCTAGTGCAG” reads 8800 fluorescence intensity (a.u.); that for “AATGATGGATTTGAAGGGCAGACGGAGTGCAAAAGTAAAACGGAGTCACCTAGTGCAG”, 3180 fluorescence intensity (a.u.).
In the case of “AGTTAATTAAAATACACTGAATGGTGGGCTGTGGGTGCATCGGAGTCACCTAGTGCAG”, the binding signal was 36800 fluorescence intensity (a.u.).
The result for “CCTATCATTTGATTTATTATTAAATATACTTTTATATAGTCGGAGTCACCTAGTGCAG” reads 14900 fluorescence intensity (a.u.).
With “ATGACTGACATGTGGATCCACTGGCACGTAAGCGTTACCGCGGAGTCACCTAGTGCAG”, the binding signal is 4700 fluorescence intensity (a.u.).
Under “TAAATTCTTGATTAAACTCAACTTCTTGTATTTACTGTTGCGGAGTCACCTAGTGCAG” stands 10800 fluorescence intensity (a.u.); under “CCATAATCACGATGGGCCAGGAAATCAAACTAACTTTCCACGGAGTCACCTAGTGCAG”, 3900 fluorescence intensity (a.u.).
The result for “CCCTCCGGTTTTATTTTAATTAACGTTTTGGACAATGACACGGAGTCACCTAGTGCAG” reads 4010 fluorescence intensity (a.u.); that for “AAACAATCAACCGAAACTATGAGGAGAACCAGATGATTCGCGGAGTCACCTAGTGCAG”, 3610 fluorescence intensity (a.u.).
The result for “ACATCAATTTCGTGTTATTAGCAAGCAACTAAGCAAGACGCGGAGTCACCTAGTGCAG” reads 4100 fluorescence intensity (a.u.); that for “CCTCGATACATGTCAATCTCTACTACCATATTGAATAACTCGGAGTCACCTAGTGCAG”, 4190 fluorescence intensity (a.u.); that for “AAATTAAATGGCGAAGTGATTCGACTATTTAGTTCTCTCTCGGAGTCACCTAGTGCAG”, 3570 fluorescence intensity (a.u.).
In the case of “GTAACGTTAATTGTTATGCATGTTATATCACTAGATTTATCGGAGTCACCTAGTGCAG”, the binding signal was 15800 fluorescence intensity (a.u.).
For “ATTCCTCCTCAATTAGTCATTCACTACATACATACAGCAACGGAGTCACCTAGTGCAG”, the binding signal was 5100 fluorescence intensity (a.u.).
With “AGACCAATCAAACAGCCATGACGAGGCTAGTTCAGATCACCGGAGTCACCTAGTGCAG”, the binding signal was 26200 fluorescence intensity (a.u.).
Under “GTGCTAATTAACTGGTCACGACTCACGAGGATAACCGTGTCGGAGTCACCTAGTGCAG” stands 36200 fluorescence intensity (a.u.); under “ATAAACTGGAACAGAAGGCCAGGCGGAAATAAACTGGACACGGAGTCACCTAGTGCAG”, 6490 fluorescence intensity (a.u.); under “TACCGATGATAATTTCCAACCGTAAACCGTAAACCGATCACGGAGTCACCTAGTGCAG”, 4390 fluorescence intensity (a.u.).
The result for “GTTAACATACAAAATTTTGGTAGTTTTGAGATCTCCCACCCGGAGTCACCTAGTGCAG” reads 5280 fluorescence intensity (a.u.).
With “CATTGAATTGAAAATTTGACATATGAGATTTGTCTACGTCCGGAGTCACCTAGTGCAG”, the binding signal is 18000 fluorescence intensity (a.u.).
Under “CGCTAATTATCTAAAATAATTCGTGCAAGATAAAATGATGCGGAGTCACCTAGTGCAG” stands 32600 fluorescence intensity (a.u.); under “ATGATTTTGAGTAACGCGACAATTGAGAGTTGTTTATAGTCGGAGTCACCTAGTGCAG”, 9680 fluorescence intensity (a.u.).
Turning to “CAGTTTAACTGAGTGATAAATAGATAATAGTCAAAGGGAACGGAGTCACCTAGTGCAG”, the binding signal is 13500 fluorescence intensity (a.u.).
The result for “CGTGTAAATTACGAGACAAATCTTTTAAGCCTAATTGTGCCGGAGTCACCTAGTGCAG” reads 13700 fluorescence intensity (a.u.); that for “ACTAGACACAGAACAGGTAAATTAAAGAGACATTCAACCTCGGAGTCACCTAGTGCAG”, 3160 fluorescence intensity (a.u.).
“CTTTGTAGAATGATTAGATCGCGCATGGCTTTTACTTCATCGGAGTCACCTAGTGCAG”: the binding signal was 6210 fluorescence intensity (a.u.).
The result for “GAAAATCACGTGCGTAATTATGATAAGAGCAATCTCTACTCGGAGTCACCTAGTGCAG” reads 14300 fluorescence intensity (a.u.).
In the case of “TATCCCAATTAAAATGATATAATATAGATAGAGAGATATGCGGAGTCACCTAGTGCAG”, the binding signal is 8240 fluorescence intensity (a.u.).
The result for “TGGTGATTTGGGTGTTTCTTTGTTCGGAATTGCAGGGAGGCGGAGTCACCTAGTGCAG” reads 9650 fluorescence intensity (a.u.).
“AATTAATTGTAATCATCTTCTATACTAATACCAATATTTTCGGAGTCACCTAGTGCAG”: the binding signal was 3730 fluorescence intensity (a.u.).
Under “AATATGGAGATTGAATGGTTTGATCATCCAGAAAACTCAACGGAGTCACCTAGTGCAG” stands 13200 fluorescence intensity (a.u.).
Under “CTGCAAACATACATTAATTGATGCATCCAGAAGAGTTAGACGGAGTCACCTAGTGCAG” stands 31200 fluorescence intensity (a.u.).
